Article PMC4336329 (PLoS ONE, 2015)
Hit rate of the full screen: of about 310,000 compounds, about 2,200 (0.71%) showed an effect of 50% or more. Effects have a minus sign here. Some of the results follow.

Target: human ether-à-go-go-related gene (hERG) potassium channel (human, UniProt Q12809)
Experiment: primary screen, population patch clamp on CHO cells stably expressing hERG

Chain of human ether-à-go-go-related gene (hERG) potassium channel (Q12809 whole entry, looked up): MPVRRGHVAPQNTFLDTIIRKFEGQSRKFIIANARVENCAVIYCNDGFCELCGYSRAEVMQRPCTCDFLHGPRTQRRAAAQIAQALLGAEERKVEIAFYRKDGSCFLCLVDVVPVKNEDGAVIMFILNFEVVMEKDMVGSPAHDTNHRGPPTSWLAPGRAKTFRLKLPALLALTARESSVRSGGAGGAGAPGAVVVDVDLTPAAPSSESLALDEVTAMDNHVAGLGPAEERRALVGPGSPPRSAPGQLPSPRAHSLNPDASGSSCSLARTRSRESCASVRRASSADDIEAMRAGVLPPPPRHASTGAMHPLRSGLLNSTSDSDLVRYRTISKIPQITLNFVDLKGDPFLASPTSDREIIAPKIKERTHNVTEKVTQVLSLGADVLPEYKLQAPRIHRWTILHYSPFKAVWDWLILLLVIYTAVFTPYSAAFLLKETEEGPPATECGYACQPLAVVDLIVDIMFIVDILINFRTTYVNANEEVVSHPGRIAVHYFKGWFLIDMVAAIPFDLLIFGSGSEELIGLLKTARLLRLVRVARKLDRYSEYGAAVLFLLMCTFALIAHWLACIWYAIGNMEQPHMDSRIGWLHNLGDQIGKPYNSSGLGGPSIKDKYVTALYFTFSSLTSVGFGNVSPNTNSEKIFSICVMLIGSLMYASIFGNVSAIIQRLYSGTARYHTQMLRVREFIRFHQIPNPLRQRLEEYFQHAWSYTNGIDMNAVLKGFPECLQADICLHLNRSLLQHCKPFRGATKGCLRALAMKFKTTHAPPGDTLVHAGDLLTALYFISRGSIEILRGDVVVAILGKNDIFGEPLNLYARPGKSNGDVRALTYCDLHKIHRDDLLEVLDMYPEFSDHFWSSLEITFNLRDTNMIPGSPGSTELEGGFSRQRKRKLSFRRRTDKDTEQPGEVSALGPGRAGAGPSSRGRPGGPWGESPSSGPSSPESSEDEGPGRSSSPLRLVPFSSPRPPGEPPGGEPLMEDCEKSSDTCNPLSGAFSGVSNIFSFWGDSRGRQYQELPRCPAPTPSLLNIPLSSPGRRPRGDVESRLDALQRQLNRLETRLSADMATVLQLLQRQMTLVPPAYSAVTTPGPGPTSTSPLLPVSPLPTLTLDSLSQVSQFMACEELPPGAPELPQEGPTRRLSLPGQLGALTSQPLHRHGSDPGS

Row | Compound | hERG current change (%, negative = inhibition) at 1uM [%]
1 | CCN(CC)S(=O)(=O)c1cccc(C(=O)NC(Cc2c[nH]c3ccccc23)c2nnc3n2CCCCC3)c1 (stereo not shown) | 4.46
2 | O=C(CCC1CCCNC1)c1ccccc1 (stereo not shown) | 12.3
3 | Cc1cc(SCC(=O)OCC(=O)NCC2CCCO2)c(C)cc1Br (stereo not shown) | 23.8
4 | CCOC(=O)N1CCN(c2nc3ccccc3nc2C(C#N)C(=O)NCCc2ccccc2)CC1 (stereo not shown) | 10.5
5 | O=C(c1ccc(N2CCN(C(=O)c3cccc(F)c3)CC2)cc1)c1cccc(F)c1 | -2.43
6 | CN(C)C=O.N#Cc1ccc(Cl)cc1NC(=O)CSc1nc2nc(-c3cccs3)cc(C(F)(F)F)c2c(=O)[nH]1 | 7.28
7 | Cl.O=C(NNC(=O)c1cccc(C(F)(F)F)c1)c1ccncc1 | 9.54
8 | O=[N+]([O-])c1cccc(N2Cc3ccccc3C2)c1 | 0.423
9 | CCCC(C(=O)NC1CCCC1)N(Cc1cccs1)C(=O)c1snc(C(N)=O)c1N (stereo not shown) | -5.88
10 | COCCN(CCOC)c1nc(S(=O)(=O)c2ccc(C)cc2)c(Cl)s1 | 9.8
11 | O=C(NCC(=O)N1CCCC1)c1ccc(Br)o1 | 14.9
12 | CC(C)NC(=O)CC(c1ccccc1)c1cc(Br)ccc1O (stereo not shown) | -0.852
13 | O=C(Oc1ccccc1C(=O)Nc1ccccc1)c1ccccc1Br | 14.1
14 | Cc1ccc(C(=O)Nc2ccc([N+](=O)[O-])cn2)o1 | 1.25
15 | CCNS(=O)(=O)c1ccc(CCC(=O)NCCc2ccc(OC)cc2)cc1 | 3.64
16 | CCc1c(C)nc(N2CCN(c3cccc(OC)c3)CC2)[nH]c1=O | 9.06
17 | CCC(C(=O)NCc1ccco1)n1nc(C)n2c(cc3occc32)c1=O (stereo not shown) | 12.9
18 | O=C(CNS(=O)(=O)c1cccc(Br)c1)NCCCc1ccccc1 | 13.9
19 | Cc1ccc(NS(=O)(=O)c2ccc(CCC(=O)N3CCCC3)cc2)cc1 | 15.2
20 | Cc1cccc(NC(=O)c2ccc(N3C(=O)C4CCCCC4C3=O)cc2)c1C (stereo not shown) | 11.3
21 | CCOC(=O)C1(c2ccccc2)NC(c2ccccc2C)C2C(=O)N(c3ccc4c(c3)OCO4)C(=O)C21 (stereo not shown) | -4.19
22 | CCn1c(=O)cc(OCC(=O)NCCCN2CCN(c3cccc(Cl)c3)CC2)c2ccccc21 | -14.8

Row | Compound | hERG current change (%, negative = inhibition) at 1uM [%]
23 | CNc1snc(C)c1C(=O)OC(C)C(=O)Nc1cccc(OC)c1 (stereo not shown) | 1.63
24 | CN(C)S(=O)(=O)c1cccc(C(=O)NCc2ccco2)c1 | 15.3
25 | C=CCOC(=O)C(C#N)c1nc2ccccc2nc1N1CCN(c2ccccc2OC)CC1 (stereo not shown) | 10.8
26 | O=C(CCSc1ccccc1)Nc1ncccn1 | 16
27 | COc1ccc(OC)c(Nc2c3c(nc4ccccc24)CCC3)c1 | -14.8
28 | O=C(NCCc1ccc(Cl)cc1)c1ccc(CNc2c(N3CCOCC3)c(=O)c2=O)cc1 | 7.76
29 | Cc1cccc(N(C)c2cc(C)nc3nc(C)nn23)c1 | -1.14
30 | COc1ccc(-n2nc3c(c2NC(=O)C(C)Cl)CSC3)cc1 (stereo not shown) | 14.4
31 | O=C(Nc1ccc(N2CCCC2)cc1)c1ccc(Br)cc1 | 19.5
32 | COc1ccc(C)cc1NC(=O)CCNC(=O)Cn1cnc2ccccc2c1=O | 10.3
33 | Cc1ccc(CC(=O)NCCCc2ccccc2)cc1 | 6.87
34 | CCOC(=O)c1cc2c(=O)n3cccc(C)c3nc2n(CC(C)C)c1=NC(=O)c1ccco1 | -64.7
35 | Cc1nn(C)c(C)c1C1C(C#N)=C(N)OC2=C1C(=O)CCC2 (stereo not shown) | 8.81
36 | CCc1ccc(Nc2ccc(C(N)=O)cc2[N+](=O)[O-])cc1 | 12
37 | CC1(C)CC2(CC(C)(C(=O)CSc3nc4ccccc4s3)OC2=O)C(=O)O1 (stereo not shown) | 6.11
38 | CCCNC(=O)CN1C(=O)NC(Cc2c[nH]c3ccccc23)C1=O (stereo not shown) | 6.14
39 | CN1c2ccccc2Oc2ccccc21.[O-][Cl+3]([O-])([O-])[O-] | 4.62
40 | O=C(O)c1ccccc1S(=O)(=O)c1ccccc1CO | 9.61
41 | COc1ccc2nc(SCC(=O)NCC3CCCO3)c(C#N)cc2c1 (stereo not shown) | 21.4
42 | CCOc1cc(C=O)cc(Cl)c1OCC(N)=O | 9.88
43 | COc1ccc([C@@]2(C(C)C)ON(c3ccccc3C(F)(F)F)C2=O)cc1 | 16
